# PubChem BioAssay AID485344 (National Center for Advancing Translational Sciences (NCATS), 2010)
# In all, about 340,000 compounds went through this assay and about 6,900 (2%) were called active. Rule as the data show it: active = inhibition above about 30%; inactive = below that, where a call was filed. Only a part is listed here, and it is no random draw. The source gives no active or inactive call for entries shown without one.
# Biological target: D(2) dopamine receptor (Homo sapiens) (UniProt P14416)
# UniProt P14416, sequence (P14416 whole entry, looked up): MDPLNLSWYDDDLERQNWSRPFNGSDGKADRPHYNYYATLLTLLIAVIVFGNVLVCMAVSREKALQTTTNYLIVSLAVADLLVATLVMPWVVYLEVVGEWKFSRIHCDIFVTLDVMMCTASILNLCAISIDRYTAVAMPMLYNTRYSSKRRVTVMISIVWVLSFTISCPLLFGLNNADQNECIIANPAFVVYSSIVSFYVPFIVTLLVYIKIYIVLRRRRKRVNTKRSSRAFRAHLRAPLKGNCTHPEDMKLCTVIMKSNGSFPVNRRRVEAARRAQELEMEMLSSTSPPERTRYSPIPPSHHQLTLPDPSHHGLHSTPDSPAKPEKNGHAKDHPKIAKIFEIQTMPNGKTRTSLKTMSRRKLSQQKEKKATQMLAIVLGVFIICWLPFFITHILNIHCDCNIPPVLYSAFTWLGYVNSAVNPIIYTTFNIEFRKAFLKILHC
# Assay: HTS Assay for Allosteric Antagonists of the Human D2 Dopamine Receptor: Primary Screen for Antagonists; also: 0% is about no effect
# Conditions: HEK293 TREx D2 cells, calcium flux, dopamine EC80; at 10 µM; stronger effect = higher value
# Method in brief: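 Calcium flux kinetic readout in an inducible HEK293 TREx D2 line plated overnight at 30 C. After 180 s compound exposure, an EC80 dopamine challenge follows with another 180 s kinetic read to detect antagonism.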
row,SMILES,inhibition
1,Cc1ccc(Cc2c(C)nc3nc(SCC(=O)NCCC(C)C)nn3c2C)cc1,2.17%
2,Cc1nn(C)c(C)c1S(=O)(=O)N(CC(=O)Nc1ccc(F)cc1F)c1ccc(C(C)C)cc1,1.44%
3,COc1ccc(NC(=O)Cn2c(=O)n(-c3ccc(C)cc3)c(=O)c3c2c2cc(C)ccc2n3C)cc1,19.1%
4,COCCNC(=O)C1CCN(C(=O)C2CC(=O)N(c3ccc(C)cc3)C2)CC1 (stereo not given),active: 30%
5,Cc1ccc(CN2C(=O)SC(Nc3ccc(Cl)cc3)C2=O)cc1 (stereo not given),-5.45%
6,CC1CCN(c2nc3ccc(C(=O)NC(C)C)cc3s2)CC1,-6.4%
7,CCn1c(C(=O)NCc2ccccc2Cl)cc2sc(Cl)cc21,8.69%
8,NC(=O)CCN1CCN(CCOC2Cc3cc(Cl)ccc3Sc3ccccc32)CC1 (stereo not given),active: 93.9%
9,O=C(CCC(=O)N1Cc2ccccc2Oc2ncccc21)NCc1cccc(Cl)c1,0.145%
10,CC(Oc1ccccc1)C(=O)Nc1ccc(C(=O)OCc2cc(=O)n3nc(C4CC4)sc3n2)cc1 (stereo not given),6.74%
11,O=C(NCc1cccc(Cl)c1)c1ccc(NC(=O)N2CCSc3ccccc32)cc1,15.2%
12,Cc1cc2[nH]c(=O)c(=O)[nH]c2cc1S(=O)(=O)N1CCN(c2ccccc2)CC1,6.73%
13,COc1ccc(Cc2nc3ccccc3n2Cc2ccccc2C)cc1,-3.14%
14,Cn1c(=O)c(=O)n(C)c2cc(NS(=O)(=O)c3ccc(Br)cc3)c(Cl)cc21,-17.7%
15,CCc1ccc(-n2nc(CO)c(C(=O)NCc3ccccc3Cl)n2)cc1,7.89%
16,COc1ccc(NC(=O)N2CCCn3nc(C)cc32)cc1OC,-4.08%
17,Cc1c(C(=O)N2CCCCCC2)c(S(=O)(=O)Nc2cccc(C#N)c2)c(C)n1C,12%
18,CC1(C)N=C(SCc2ccc(Cl)cc2)c2ccccc2N1,-3.1%
19,Cn1c(=O)cc(SCC(=O)NCc2ccc(F)cc2)c2cc(Cl)ccc21,11.6%
20,CCOC(=O)c1c(C)[nH]c(C)c1S(=O)(=O)N1CCC(C(=O)Nc2ccccc2CC)CC1,-6.56%

row,SMILES,inhibition
1,COc1ccc(-c2cn3c(n2)sc2cc(C(=O)Nc4ccc(C)c(Cl)c4)ccc23)cc1,-7.71%
2,COC(=O)c1ccc(NC(=O)n2ncc3c(C)cccc32)cc1,1.26%
3,CC1=C(c2ccc(C(C)C)cc2)S(=O)(=O)N=C1N1CCC(C(=O)Nc2ccc(C)cc2)CC1,8.56%
4,CCc1ccc(NC(=O)c2cnn(-c3c(C)cccc3C)c2C2CCN(C(=O)OC(C)(C)C)CC2)cc1,9.91%
5,CCOc1ccc(NC(=O)CCCn2c(C)c3cnn(-c4ccccc4)c(=O)c3c2C)cc1,1.74%
6,O=S(=O)(c1ccc(-c2cnc(C3CC3)o2)cc1)N1CCN(c2ccc(F)cc2)CC1,7%
7,CCn1nc(C)c2c(-c3ccccc3)cc(=O)n(C(C)C(=O)NCCc3ccc(Cl)cc3)c21 (stereo not given),4.98%
8,Cc1ccc2[nH]c(=O)c(CN(CCCN3CCOCC3)C(=O)Nc3ccc(Cl)cc3)cc2c1,active: 31.3%
9,CN(C)C=NC(=O)c1cc(C(=O)c2ccccc2Cl)c[nH]1,active: 46.3%
10,COc1ccc(OC)c(NC(=O)CSC2=Nc3ccccc3C3=NC(CC(=O)NCCc4ccccc4)C(=O)N23)c1 (stereo not given),8.15%
11,CCOc1cccc(CNCCCSc2nnnn2C)c1,4.55%
12,Cc1ccc(-c2ccc([C@H]3[C@H]4C=CC[C@@H](C)[C@@H]4C(=O)N3Cc3ccccc3)c(F)c2)cc1,active: 33.2%
13,O=C(c1ccc2c(c1)N(Cc1cccc(Cl)c1)C(=O)c1ccccc1S2=O)N1CCC(Cc2ccccc2)CC1 (stereo not given),1.01%
14,CCn1nnc(NC(=O)c2ccco2)n1,active: 69.4%
15,CCOC(=O)c1c(S(=O)(=O)N2CCC(C(=O)Nc3ccc(C)c(Cl)c3)CC2)c(C)n(C)c1C,-18.1%
16,COc1nnc(-c2ccc(N3CCCCC3)c(NC(=O)c3ccc(C)cc3)c2)c2ccccc12,-9.27%
17,O=C(c1cccc([N+](=O)[O-])c1)N1CCN(c2ccc(Nc3ccccc3)nn2)CC1,-13.7%
18,CCNC(=O)CC1C(=O)N(c2ccc(C)cc2)C(=O)N1CCOC (stereo not given),-2.12%
19,COc1ccc(CNC(=O)CN2C(=O)CCn3nc(-c4cn(C)c5ccccc45)cc32)cc1,2.29%
20,CCOC(=O)C1=C(C)n2c(s/c(=C3\C(=O)Nc4ccccc43)c2=O)=NC1c1ccc(OC)cc1 (stereo not given),active: 39.7%

row,SMILES,inhibition
1,COC(=O)c1cc(Cl)c(NC(=O)c2cc3ccccc3o2)cc1OC,active: 32.4%
2,COc1cc(OC)cc(C(=O)N/N=C/c2ccc(OC)c(COc3ccc(F)cc3)c2)c1,active: 34.2%
3,Oc1c(C(c2ccccc2)N2CCCC2)sc2nc(-c3ccco3)nn12 (stereo not given),3.19%
4,COc1ccc(-c2onc(C)c2C)cc1S(=O)(=O)NCCc1ccccc1,0.109%
5,CCOC(=O)Cc1ccc(NC(=O)NC(C)c2c(-n3cccc3)sc(C)c2C)cc1 (stereo not given),3.9%
6,Cc1ccc(C)c(Cn2c(=O)n(-c3ccccc3)c(=O)c3c4c(sc32)CCCC4)c1,3.18%
7,Cc1cc2oc(=O)c(CC(=O)O)c(C)c2c2occ(-c3ccccc3)c12,3.09%
8,O=C(CN1CCc2ccccc2C1)Nc1ccccc1Cl,active: 60.6%
9,CCOC(=O)c1c(C)[nH]c(CCC(=O)NCc2cc(OC)c(OC)c(OC)c2)c1C,-27.9%
10,COc1cc(-n2c(=O)c3ccccc3n(Cc3cccc(Cl)c3)c2=O)cc(OC)c1OC,12.2%
11,O=C(Nc1ccc(Br)cc1)c1cc(S(=O)(=O)NC2CCCC2)ccc1F,17.4%
12,O=C(CCSCCc1ccccn1)Nc1ccc(Cl)cc1,2.56%
13,Cc1ccc2c(C)c(C(=O)N(Cc3ccc(N(C)C)cc3)Cc3ccco3)oc2c1C,5.21%
14,COc1ccc2c(c1)c(N1CCCC1=O)c(C(=O)Nc1cc(C)c(Cl)cc1OC)n2C,8.91%
15,CCCCCC(=O)Nc1cc(N(C)C)nc2ccccc12,active: 35.2%
16,CCN(c1ccccc1)S(=O)(=O)c1nnc(NC(=O)C2CCCCC2)s1,-9.24%
17,Cc1ccc2c(c1)cc1c(=O)n(Cc3ccccc3Cl)nc(C)n12,-6.45%
18,CCOC(=O)c1ccccc1NC(=O)N1CCC(CN2CCOCC2)CC1,-4.31%
19,CC1CCN(CCNC(=S)Nc2ccc(Cl)cc2)CC1,active: 30.7%
20,C[C@H](NC(=O)OCc1ccccc1)c1nnc([C@H](Cc2ccccc2)NC(=O)OC(C)(C)C)o1,active: 30.9%
